Data on 4 molecules can be found in patent US20100055093A1 (RECEPTOR BIOLOGIX, published 2010).

The target of series [1] is T1, epidermal growth factor (EGF) (human, UniProt P01133 971-1023).
T1 construct: also called Eu-EGF
The series can be described thus: ligand binding screen on anti-Fc plates.

Series [2] addresses heparin-binding EGF (HB-EGF) (UniProt Q99075 63-148, limits assumed). Put plainly: ligand binding screen on anti-Fc plates.
The target in series [3] is T2, transforming growth factor alpha (TGF-α) (UniProt P01135 40-89).
T2 construct: also called TGF-alpha; TGF-a
The series can be described thus: ligand binding screen on anti-Fc plates.

For series [4], the target named is T3, neuregulin-1 beta 1 (NRG1β1) (human, UniProt Q02297-6 177-241, limits assumed).
T3 construct: also called HRG; heregulin
T3 sequence (looked up): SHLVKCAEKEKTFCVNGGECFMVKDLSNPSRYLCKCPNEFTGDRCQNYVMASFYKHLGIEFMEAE
The series can be described thus: Eu-NRG1β1 binding capacity (DELFIA).

Series [5] concerns the molecule itself. The series can be described thus: self-association by size exclusion chromatography (apparent over calculated molecular weight).
Series [6] addresses T1, epidermal growth factor (EGF). Put plainly: 125I-ligand cross-linking (FIG. 6a).
Series [7] addresses T3, neuregulin-1 beta 1 (NRG1β1). Put plainly: 125I-HRG cross-linking (BS3), SDS-PAGE autoradiography.

T1 sequence (P01133 971-1023 limits assumed): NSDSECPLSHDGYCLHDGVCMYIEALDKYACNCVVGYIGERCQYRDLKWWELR
UniProt Q99075, sequence (Q99075 63-148 limits assumed): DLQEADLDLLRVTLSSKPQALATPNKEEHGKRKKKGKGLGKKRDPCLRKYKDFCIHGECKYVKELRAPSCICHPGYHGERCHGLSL

B1: HFD100 mutant S193N/E330D/G588S (Fc fusion)
chain: LEEKKVCQGTSNKLTQLGTFEDHFLSLQRMFNNCEVVLGNLEITYVQRNYDLSFLKTIQEVAGYVLIALNTVERIPLENLQIIRGNMYYENSYALAVLSNYDANKTGLKELPMRNLQEILHGAVRFSNNPALCNVESIQWRDIVSSDFLSNMSMDFQNHLGSCQKCDPNCPNGSCWGAGEENCQKLTKIICAQQCSGRCRGKSPSDCCHNQCAAGCTGPRESDCLVCRKFRDEATCKDTCPPLMLYNPTTYQMDVNPEGKYSFGATCVKKCPR[letters of about 600 residues with a human IgG1 Fc left out]
As to B1, the binding result in series [1] was “binds”.

B2: HFD100 mutant T43K/S193N/E330D/G588S (Fc fusion)
chain: LEEKKVCQGTSNKLTQLGKFEDHFLSLQRMFNNCEVVLGNLEITYVQRNYDLSFLKTIQEVAGYVLIALNTVERIPLENLQIIRGNMYYENSYALAVLSNYDANKTGLKELPMRNLQEILHGAVRFSNNPALCNVESIQWRDIVSSDFLSNMSMDFQNHLGSCQKCDPNCPNGSCWGAGEENCQKLTKIICAQQCSGRCRGKSPSDCCHNQCAAGCTGPRESDCLVCRKFRDEATCKDTCPPLMLYNPTTYQMDVNPEGKYSFGATCVKKCPR[letters of about 600 residues with a human IgG1 Fc left out]
notes: Tested as conditioned medium captured on anti-Fc plates; also called quad mutant
On to B2, for which the binding result in series [2], in series [3] and in series [1] was “binds” each time.

B3: HER3-621/Fc homodimer (Fc fusion)
chain: SEVGNSQAVCPGTLNGLSVTGDAENQYQTLYKLYERCEVVMGNLEIVLTGHNADLSFLQWIREVTGYVLVAMNEFSTLPLPNLRVVRGTQVYDGKFAIFVMLNYNTNSSHALRQLRLTQLTEILSGGVYIEENDKLCHMDTIDWRDIVRDRDAEIVVKDNGRSCPPCHEVCKGRCWGPGSEDCQTLTKTICAPQCNGHCFGPNPNQCCHDECAGGCSGPQDTDCFACRHFNDSGACVPRCPQPLVYNKLTFQLEPNPHTKYQYGGVCVASCPHNFVVDQTSCVRACPPDKMEVDKNGLKMCEPCGGLCPKACEGTGSGSRFQTVDSSNIDGFVNCTKILGNLDFLITGLNGDPWHKIPALDPEKLNVFRTVREITGYLNIQSWPPHMHNFSVFSNLTTIGGRSLYNRGFSLLIMKNLNVTSLGFRSLKEISAGRIYISANRQLCYHHSLNWTKVLRGPTEERLDIKHNRPRRDCVAEGKVCDPLCSSGGCWGPGPGQCLSCRNYSRGGVCVTHCNFLNGEPREFAHEAECFSCHPECQPMGGTATCNGSGSDTCAQCAHFRDGPHCVSSCPHGVLGAKGPIYKYPDVQNECRPCHENCTQGCKGPELQDCLGQTLVLIGKTGGGGG[letters of human IgG1 Fc left out]
notes: also called HFD300; HFD300T
With B3, the “NRG1β1 binding activity relative to the heterodimers (RB200h, RB220h)” value in series [4] is 30%. Besides, the “M. Wt. (ap):M. Wt.” value in series [5] is 4.69.

B4: HER[…]/Fc (Fc fusion)
chain: not shown
notes: Tested as conditioned medium; also called HFD200; HF200-Fc
In the case of B4, the binding result was “no binding” in series [6] and “no binding (tested: 5 nM 125I-HRG)” in series [7].
